# Hit rate of the full screen: of about 48,000 compounds, about 120 (0.25%) were called active. Inconclusive results (about 4%) are left out. Calls follow the shape of the dose curve; as a rule, active = well fitted activation curve with a large enough effect; inconclusive = small, poorly fitted or top-dose-only effect, or another doubt; inactive = no such curve, though single readings can be large or run the other way. The list shows a part of the results.
# Experiment: Primary qHTS for Identification of Small Molecule Activators of Huntingtin-Antisense Promoter Activity; also: nearly all actives have a fitted effect of over 55% in size
# Conditions: HEK293 HTT-AS promoter firefly luciferase reporter (activity 0% = vehicle and -100% = no light), 24 h; series mostly up to 57.5 µM; activity change, positive = activation: at the top concentration
# Method in brief: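 HEK293 cells carrying firefly luciferase reporters were seeded at 2,500 per well in Opti-MEM and cultured for 24 h. They were then treated with compounds at up to 57.5 uM final for 24 h at 37 degrees C before Dual-Glo luminescence readout.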
row,SMILES,"activity change, positive = activation"
1,Cc1cc(C)c(Cn2c(=O)n(Cc3ccccc3)c(=O)c3c(C)c(C)sc32)c(C)c1,inactive: 14.3%
2,O=C(Nc1cccc(C(F)(F)F)c1)c1cc2nc(-c3ccco3)cc(C(F)(F)Cl)n2n1,inactive: 1.33%
3,Cc1ccc(S(=O)(=O)c2nnn(CC(=O)Nc3ccccc3C)c2N)cc1,inactive: -12%
4,COc1ccc(-n2nc(C(=O)N3CCCCC3)c3c4ccccc4n(C)c3c2=O)cc1Cl,inactive: -17.9%
5,CCOC(=O)c1cc(-c2ccccc2)n(CCC(=O)NCCc2ccc(C)cc2)c1C,inactive: -35.8%
6,O=C(Nc1nc(-c2ccccc2)ns1)c1ccc(Cl)cc1,inactive: 21.9%
7,CCOC(=O)c1c(NC(=O)c2ccc(S(=O)(=O)N(CC(C)C)CC(C)C)cc2)sc2c1CCN(CC)C2,inactive: -21.6%
8,CCOC(=O)N1CCc2c(sc(NCc3cccs3)c2C(=O)Nc2cc(Cl)ccc2OC)C1,inactive: -10.1%
9,CCN(CC)c1ccc(NC(=O)C2CCN(S(=O)(=O)c3ccc4c(c3)oc(=O)n4C)CC2)c(C)c1,inactive: -21.6%
10,CC(C(=O)O)c1ccc2c(c1)CC(=O)c1ccccc1S2 (stereo not given),inactive
11,Cc1cccc(NC(=O)C(NS(=O)(=O)c2cccc3nsnc23)c2ccccc2)c1C (stereo not given),inactive: -0.228%
12,COc1ccccc1N1CCN(C(=O)c2ccc3c(c2)N(Cc2cc(C)ccc2C)C(=O)c2ccccc2S3(=O)=O)CC1,inactive: -29.2%
13,COc1ccc(CN(C(=O)c2cc(=O)c3ccccc3o2)C2CCS(=O)(=O)C2)cc1OC (stereo not given),inactive: 0%
14,Cc1nc(Nc2ncc(C(=O)Nc3c(C)cccc3Cl)s2)cc(N2CCN(CCO)CC2)n1,inactive
15,CC(=O)OCC(=O)[C@@]1(O)CC[C@H]2[C@@H]3CCC4=CC(=O)CC[C@]4(C)[C@@H]3C(=O)C[C@@]21C,inactive: -0.653%
16,Cc1ccccc1OCCSc1nnc(-c2cccs2)o1,inactive: 32.3%
17,Cc1ccc(NC(=O)Cn2c(=O)n(CCC(C)C)c(=O)c3cccnc32)cc1C,inactive: -16%
18,CCC(C(=O)NCCC(C)C)N(C(=O)Cn1nnc(-c2ccc(C)cc2)n1)c1cccc(O)c1 (stereo not given),inactive: -38.6%
19,COc1ccc(Cl)cc1NC(=O)Cn1c(=O)n(Cc2ccc(F)cc2)c(=O)c2cccnc21,inactive: -27.8%
20,CCN(CCO)CCCC(C)Nc1ccnc2cc(Cl)ccc12 (stereo not given),inactive
21,CC1CN(C(=O)N2CCC(C(=O)NCc3ccccc3F)CC2)c2cc(Cl)ccc2O1 (stereo not given),inactive: -20%
22,COc1ccccc1N1CCN(C(=O)Cn2c(=O)nc(-c3ccccc3)c3ccccc32)CC1,inactive: -47.9%
23,CCOc1ccc(NC(=O)C(C)n2c(=O)cc(-c3ccccc3)c3c(C)nn(C)c32)cc1 (stereo not given),inactive: 2.44%
24,COc1cc(N2CCC(N3CCN(C)CC3)CC2)ccc1Nc1ncnc(Nc2ccccc2S(=O)(=O)C(C)C)n1,inactive: -37.6%

row,SMILES,"activity change, positive = activation"
1,CCOC(=O)c1ccc(NC(=O)C2=C(C)C(=O)OC23CCN(C(C)=O)CC3)cc1,inactive: -14.1%
2,Cc1ccc(Cl)cc1NC(=O)CCn1cnc2ccccc2c1=O,inactive: -4.74%
3,COc1cc(Nc2nc3ccc(Cl)cc3nc2-n2nc(C)cc2C)cc(OC)c1,inactive: -11%
4,CCOC(=O)c1cccc(NC(=O)c2cc(C)nc3c2c(C)nn3-c2ccc(C)cc2)c1,inactive: -24.5%
5,O=C(CN1C(=O)COc2ccc(S(=O)(=O)NC3CCCC3)cc21)NCc1ccccc1Cl,inactive: -12%
6,CCc1cccc(C)c1NC(=O)CSc1n[nH]c(-c2ccccc2)n1,inactive: -32.3%
7,Cn1ncc2c(Nc3cccc(C#N)c3)ncnc21,inactive: 2.89%
8,Cc1cc(C)cc(NC(=O)C(=O)NCC(c2cccnc2)N2CCOCC2)c1 (stereo not given),inactive: -23.8%
9,CCOC(=O)c1c(CSc2ccccc2)n(C)c2cc(Br)c(O)c(CN(C)C)c12,inactive: -15.2%
10,COc1ccc(NC(=O)C(NS(=O)(=O)c2cccc3nsnc23)C(C)C)cc1OC (stereo not given),inactive: -3.41%
11,COc1ccc(-c2nc(S(=O)(=O)c3ccccc3)c(N3CCC(C)CC3)o2)cc1,inactive: 4.84%
12,CN1C(=O)c2ccccc2Sc2ccc(NC(=O)N3CCN(c4ccc(F)cc4)CC3)cc21,inactive: -77.2%
13,CCN1CCN(Cc2ccc(-c3cc4c(N[C@H](C)c5ccccc5)ncnc4[nH]3)cc2)CC1,inactive: -37.8%
14,CCOc1ccc(CNC(=O)c2cc3cc(S(=O)(=O)N4CCCCC4)ccc3n2C)cc1,inactive: -47.7%
15,Cc1ccn(-c2ccc(-c3ncco3)cc2)c(=O)c1-c1ccc2nc(N)ncc2c1,inactive: -21.7%
16,Oc1ccc(NCc2ccccc2OCc2ccccc2)cc1,inactive: -1.48%
17,O=C1c2ccccc2-[n+]2ccc3c([nH]c4ccccc43)c21,inactive: -92.6%
18,COc1ccc(C(=O)NCCc2csc(-c3ccc(Cl)cc3)n2)c(OC)c1,inactive: -23%
19,CSc1ccc(CCNC(=O)CN2C(=O)COc3ccc(S(=O)(=O)N4CCCCCC4)cc32)cc1,inactive: -37.4%
20,Cc1ccc(Cl)cc1-n1c(SCC(=O)NCc2ccccc2)nc2n[nH]c(C)c2c1=N,inactive: -44.6%
21,CCOC(=O)c1c(C)[nH]c(C)c1S(=O)(=O)N1CCCC(C(=O)N2CCN(c3cccc(Cl)c3)CC2)C1 (stereo not given),inactive: 0%
22,COc1ccccc1C(=O)Nc1ccc(-c2cc(C(F)(F)F)nn2-c2ccccc2)cc1,inactive: -31.4%
23,COc1ccc(CCNC(=O)CN(c2ccccc2)S(=O)(=O)N(C)C)cc1,inactive: -12%
24,COc1ccccc1-c1nn(CCC(=O)Nc2ccccc2)c2nc(C)cc(C)c12,inactive: -11.8%

row,SMILES,"activity change, positive = activation"
1,O=C(Nc1ccc(F)c(F)c1)C(c1ccccc1)N1Cc2ccccc2C1=O (stereo not given),inactive: -10.3%
2,CCN(CC)CCNC(=O)c1cc2c(-c3cccc(OC)c3)nn(C)c2s1,inactive: -2.65%
3,CCOc1ccccc1NC(=O)Cn1c(=O)n(CCCC(=O)NCc2ccc(C)cc2)c(=O)c2ccccc21,inactive: -9.07%
4,Cc1ccc(C(=O)N2CCN(CCc3ccncc3)CC2)cc1,inactive: -2.51%
5,Cc1ccc2[nH]cc(C(c3ccccc3)c3ccc(Cl)s3)c2c1 (stereo not given),inactive: -27.9%
6,Cc1nn(C(C)C(=O)NCc2ccco2)c(=O)c2nn(-c3ccccc3)c(C)c12 (stereo not given),inactive: 5.08%
7,COc1ccccc1OCC(=O)NCCS(=O)(=O)N1CCN(c2ccccc2OC)CC1,inactive: 7.26%
8,Cc1cccc2sc(N(Cc3cccnc3)C(=O)c3ccco3)nc12,inactive: -1.03%
9,CN1CCCCC1CCN1c2ccccc2Sc2ccc(S(C)=O)cc21 (stereo not given),inactive: -4.11%
10,CCN(CC)S(=O)(=O)c1ccc(C(=O)NC2CC(=O)N(c3ccc(OC)c(OC)c3)C2)cc1 (stereo not given),inactive: -21.9%
11,O=C(c1ccccc1Cl)N1CCC(c2nc3ccccc3s2)CC1,inactive: -20.8%
12,CC(=O)c1ccc(NC(=O)c2cc3sccc3n2Cc2ccc(Cl)cc2)cc1,inactive: -8.88%
13,Cc1ccc(N(CC(=O)NCCSc2ccccc2)S(=O)(=O)c2ccc(F)cc2)cc1,inactive: -59.2%
14,CCOCCCNC(=O)C(=O)Nc1c2c(nn1-c1ccccc1)CSC2,inactive: -14.9%
15,O=C(COc1ccc(Cl)cc1)NCC(c1ccco1)S(=O)(=O)c1ccc(F)cc1 (stereo not given),inactive: -28.6%
16,COc1ccc(CNC(=O)c2cc3cccc4c3n2CC(C)S4)cc1OC (stereo not given),inactive: -24.5%
17,COCCCn1c(=O)c2sccc2n2c(CCCC(=O)Nc3cccc(OC)c3)nnc12,inactive: -12%
18,Cc1ccc(CNS(=O)(=O)c2ccc3[nH]c4c(c3c2)CCCCC4)cc1,inactive: -25.1%
19,Cc1cccc(NC(=O)C2CCCN(S(=O)(=O)c3ccc4c(c3)CCCC(=O)N4)C2)c1 (stereo not given),inactive: -23.6%
20,COCCCn1c(SCC(=O)Nc2ccc(F)cc2)nc2c(sc3ccccc32)c1=O,inactive: -12.9%
21,COc1cccc(Nc2nc3c(S(=O)(=O)c4cc(C)ccc4C)nnn3c3ccsc23)c1,inactive: -19.3%
22,Cc1ccc(NC(=O)N2CCN(Cc3nc4ccc(C)cc4o3)CC2)cc1,inactive: -21.8%
23,CCOC(=O)N1CCN(S(=O)(=O)N2CCCC(C(=O)NCc3cc(Br)ccc3OC)C2)CC1 (stereo not given),inactive: -26.4%
24,CC(C)c1ccc2c(c1)c(SC(C)(C)C)c(CC(C)(C)C(=O)O)n2Cc1ccc(Cl)cc1,inactive: -29%

row,SMILES,"activity change, positive = activation"
1,Cc1cc(=O)c2cc(C(=O)Nc3ccc(F)cc3)ccc2[nH]1,inactive: 2.27%
2,Cc1cc(C)c(NC(=O)CSC2=Nc3ccccc3C3=NC(CC(=O)NCc4cccs4)C(=O)N23)c(C)c1 (stereo not given),inactive: -14%
3,CCN1CCc2nc3sc(C(=O)Nc4ccccc4OC(F)(F)F)c(N)c3cc2C1,inactive: -6.15%
4,COc1ccc(C)cc1-n1nnc(S(=O)(=O)c2ccc(C)cc2)c1C,inactive: -23.2%
5,O=C(Cn1c(-c2cccs2)cc2cc(F)ccc21)N1CCN(c2ccccc2)CC1,inactive: -23.5%
6,COc1ccc(CNc2oc(/C=C/c3cc(OC)c(OC)c(OC)c3)nc2C#N)cc1,inactive: -23.8%
7,CCOc1ccc(Nc2oc(/C=C/c3ccc(OC)c(OC)c3)nc2C#N)cc1,inactive: -18.3%
8,Cc1cccn2c(=O)c(C(=O)NC(C)c3ccccc3)c(O)nc12 (stereo not given),inactive: -28.3%
9,O=C(Nc1sc2c(c1C(=O)NCC1CCCO1)CCC2)c1cc(=O)c2cc(Cl)ccc2o1 (stereo not given),inactive: -6.59%
10,Cc1ccc(CCNC(=O)c2ccc3c(c2)N(Cc2ccccc2F)C(=O)c2ccccc2S3=O)cc1 (stereo not given),inactive: -1.02%
11,COc1cccc(NC(=O)CCCn2c(=O)c3cccn3c3cccnc32)c1,inactive: -13.4%
12,CCOC(=O)c1cc(-c2ccccc2)n(CC(=O)Nc2ccccc2OCC)c1C,inactive: -5.58%
13,Cn1nnnc1SCCCNCc1cc(Br)ccc1OCc1ccccc1F,inactive: -25.6%
14,Fc1ccc(-c2csc(=Nc3cccc(C(F)(F)F)c3)n2Cc2ccc3c(c2)OCO3)cc1,inactive: -10.9%
15,O=C1C(=O)N(C2CCNCC2)CCN1Cc1ccccc1,inactive: -1.6%
16,Cc1cc(Nc2nc(N[C@@H](C)c3ccc(F)cc3)c(C#N)cc2F)n[nH]1,inactive: -2.24%
17,Cc1cccc(C)c1NC(=O)CCCn1c(=O)c2cccn2c2ccccc21,inactive: -6.66%
18,Fc1ccc(-c2cc(-c3ccccc3)c3c(n2)-c2ccccc2OC3)cc1,inactive: -10.7%
19,COc1ccc(-c2nc(CCNC(=O)c3ccccc3)cs2)cc1OC,inactive: -19.2%
20,CCOC(=O)c1c(S(=O)(=O)NCC(=O)Nc2ccc(C(C)=O)cc2)c(C)n(C)c1C,inactive: -9.63%
21,COc1cc(NC(=O)CN2C(=O)COc3ccc(S(=O)(=O)NC4CCCC4)cc32)cc(OC)c1,inactive: -11.4%
22,CCc1ccc(NC(=O)c2ccc(Cn3nc(N4CCN(c5ccccc5)CC4)ccc3=O)o2)cc1,inactive: -32.3%
23,O=C(c1ccc2c(c1)N(Cc1c(F)cccc1Cl)C(=O)c1ccccc1S2)N1CCCC1,inactive: -25.2%

# Reference: PubChem BioAssay AID1508624 (National Center for Advancing Translational Sciences (NCATS), 2021)
